In the supplement of paper PMC4967469:
Lines with a small IC50 respond at low doses; fits outside the tested doses are given as limits. AUC sums up the same curve from the lowest dose to the 256-fold higher top dose; it is 1 without any effect and falls as sensitivity rises. For some of these results: Any top dose called inferred comes from the curve model; the source does not state it. For some of these results: Where an entry number is given, a second screen of the drug exists; the two often differ.

Key:
Assay in all cases: Viability of human cancer cell lines after 72 h of drug (GDSC screen)
[1] = compound: O=c1cc(-c2cccc3c2Sc2ccccc2S3)oc(N2CCOCC2)c1 [KU-55933]; details: top dose 10 µM
Procedure: (§1)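 Human cancer cell lines in 384-well plates, medium with 10% serum, drug for 72 h over a 256-fold dose range (nine 2-fold or five 4-fold steps up to the top dose). Adherent lines were fixed and stained with the nucleic acid dye Syto60, suspension lines read with resazurin; signal relative to control wells, capped at 0 and 100%. One two-parameter sigmoid per drug and line, fitted in a mixed model over all curves with the slope shared within a line.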

[2] = compound: CCn1c(-c2nonc2N)nc2cnc(Oc3cccc(NC(=O)c4ccc(OCCN5CCOCC5)cc4)c3)cc21 [GSK269962A]; details: top dose inferred
Procedure: as §1

[3] = compound: C/C=C(/C)C(=O)O[C@H]1C(C)=C2[C@H]([C@@H]1OC(=O)CCCCCCC)[C@@](C)(OC(C)=O)C[C@H](OC(=O)CCC)[C@@]1(O)[C@H]2OC(=O)[C@@]1(C)O [Thapsigargin]; details: top dose 0.512 µM; top dose inferred
Procedure: as §1

[4] = compound: COc1cc2ncnc(-n3nc(-c4ccccn4)nc3N)c2cc1OC [CP466722]; details: top dose 16 µM; top dose inferred
Procedure: as §1

[5] = compound: C[C@]1(c2nc3c(C(N)=O)cccc3[nH]2)CCCN1 [ABT-888]; details: top dose 5 µM; top dose inferred
Procedure: as §1

[6] = compound: C=CC(=O)Nc1cc(-n2c(=O)ccc3cnc4ccc(-c5cn[nH]c5)cc4c32)ccc1C [QL-X-138]; details: top dose 10.24 µM; top dose inferred
Procedure: as §1

[7] = compound: COc1nc(C)cnc1NS(=O)(=O)c1cccnc1-c1ccc(-c2nnco2)cc1 [Zibotentan]; details: top dose 20 µM; top dose inferred
Procedure: as §1

[8] = compound: COc1cc(O)c2c(c1)/C=C/C[C@H](O)[C@H](O)C(=O)/C=C\C[C@H](C)OC2=O [(5Z)-7-Oxozeaenol]; details: top dose 10 µM; top dose inferred
Procedure: as §1

[9] = compound: Cc1ccc(F)c(NC(=O)Nc2ccc(-c3cccc4[nH]nc(N)c34)cc2)c1 [ABT-869]; details: top dose 1.024 µM; top dose inferred
Procedure: as §1

[10] = compound: COc1cc(N2CCC(O)CC2)ccc1Nc1cc(Nc2ccccc2S(=O)(=O)C(C)C)c2cc[nH]c2n1 [MPS-1-IN-1]; details: top dose 20 µM; top dose inferred
Procedure: as §1

[11] = compound: Cc1cnc(-c2cnc(NCCNc3ccc(C#N)cn3)nc2-c2ccc(Cl)cc2Cl)[nH]1 [CHIR-99021]
Procedure: as §1

[12] = compound: Nc1ccn([C@@H]2O[C@H](CO)[C@@H](O)[C@@H]2O)c(=O)n1 [Cytarabine]; details: top dose 2 µM
Procedure: as §1

[13] = compound: Cc1ccc(-c2c(C(=O)CCl)n(CCCO)c3ncnc(N)c23)cc1 [CMK]; details: top dose 4 µM; top dose inferred
Procedure: as §1

[14] = top dose 2.5 µM, screen: GDSC drug entry 127
[15] = top dose 5 µM, screen: GDSC drug entry 1192
[16] = top dose 2.56 µM, screen: GDSC drug entry 154
[17] = top dose 10 µM, screen: GDSC drug entry 1241, top dose inferred

Cell Line | AUC [1] | IC50 [1] | AUC [2, 14] | IC50 [2, 14] | AUC [2, 15] | IC50 [2, 15] | AUC [3] | IC50 [3] | AUC [4] | IC50 [4] | AUC [5] | IC50 [5] | AUC [6] | IC50 [6] | AUC [7] | IC50 [7] | AUC [8] | IC50 [8] | AUC [9] | IC50 [9] | AUC [10] | IC50 [10] | AUC [11, 16] | IC50 [11, 16] | AUC [11, 17] | IC50 [11, 17] | AUC [12] | IC50 [12] | AUC [13] | IC50 [13]
SLVL (B-cell lymphoma, suspension) | 0.972 | > 10000 nM | 0.931 | > 2500 nM | 0.926 | > 5000 nM | 0.337 | 10.9 nM | 0.749 | 5460 nM | 0.983 | > 5000 nM | 0.55 | 886 nM | 0.97 | > 20000 nM | 0.835 | 7120 nM | 0.725 | 290 nM | 0.822 | 12600 nM | 0.981 | > 2560 nM | 0.945 | > 10000 nM | 0.983 | > 2000 nM | 0.828 | 2670 nM
SNU-C1 (large intestine, suspension) | 0.912 | > 10000 nM | 0.98 | > 2500 nM | 0.853 | > 5000 nM | 0.794 | 373 nM | 0.895 | > 16000 nM | 0.976 | > 5000 nM | 0.872 | > 10200 nM | 0.979 | > 20000 nM | 0.663 | 2200 nM | 0.978 | > 1020 nM | 0.907 | > 20000 nM | 0.958 | > 2560 nM | 0.97 | > 10000 nM | 0.94 | > 2000 nM | 0.974 | > 4000 nM
SR (lymphoid neoplasm, suspension) | 0.894 | 9940 nM | 0.181 | 19.7 nM |  |  | 0.931 | > 512 nM | 0.606 | 1890 nM | 0.986 | > 5000 nM | 0.28 | 164 nM | 0.962 | > 20000 nM | 0.544 | 812 nM | 0.927 | > 1020 nM | 0.266 | 293 nM | 0.959 | > 2560 nM | 0.976 | > 10000 nM | 0.779 | 733 nM | 0.916 | > 4000 nM
ST486 (Burkitt lymphoma, suspension) | 0.959 | > 10000 nM | 0.924 | > 2500 nM | 0.789 | 1940 nM | 0.108 | 2.13 nM | 0.54 | 1270 nM | 0.988 | > 5000 nM | 0.322 | 218 nM | 0.96 | > 20000 nM | 0.711 | 2260 nM | 0.989 | > 1020 nM | 0.719 | 4780 nM | 0.883 | 2200 nM | 0.864 | 7110 nM | 0.92 | > 2000 nM | 0.849 | 2490 nM
SU-DHL-4 (B-cell lymphoma, suspension) | 0.997 | > 10000 nM | 0.981 | > 2500 nM | 0.997 | > 5000 nM | 0.221 | 6.69 nM | 0.782 | 4860 nM | 0.997 | > 5000 nM | 0.595 | 1080 nM | 0.997 | > 20000 nM | 0.872 | 5260 nM | 0.997 | > 1020 nM | 0.974 | > 20000 nM | 0.996 | > 2560 nM | 0.978 | > 10000 nM | 0.997 | > 2000 nM | 0.782 | 1220 nM
SU-DHL-16 (B-cell lymphoma, suspension) | 0.981 | > 10000 nM | 0.935 | 2210 nM | 0.917 | 3740 nM | 0.015 | < 2 nM | 0.974 | > 16000 nM | 0.985 | > 5000 nM | 0.164 | 94.4 nM | 0.996 | > 20000 nM | 0.74 | 2400 nM | 0.996 | > 1020 nM | 0.873 | 10800 nM | 0.996 | > 2560 nM | 0.996 | > 10000 nM | 0.863 | 1010 nM | 0.979 | > 4000 nM
SUP-M2 (anaplastic large cell lymphoma, suspension) | 0.892 | 6910 nM | 0.944 | > 2500 nM | 0.763 | 1420 nM | 0.292 | 9.82 nM | 0.664 | 2530 nM | 0.994 | > 5000 nM | 0.237 | 141 nM | 0.994 | > 20000 nM | 0.439 | 442 nM | 0.967 | > 1020 nM | 0.3 | 400 nM | 0.994 | > 2560 nM | 0.961 | > 10000 nM | 0.832 | 883 nM | 0.907 | 3140 nM
SUP-T1 (T-cell lymphoblastic leukaemia, suspension) | 0.987 | > 10000 nM | 0.99 | > 2500 nM | 0.861 | 3630 nM | 0.592 | 55.8 nM | 0.589 | 1710 nM | 0.979 | > 5000 nM | 0.672 | 1830 nM | 0.987 | > 20000 nM | 0.78 | 3730 nM | 0.983 | > 1020 nM | 0.888 | 19100 nM | 0.985 | > 2560 nM | 0.913 | > 10000 nM | 0.893 | > 2000 nM | 0.985 | > 4000 nM
